# Test results reported in publication PMC4336329 (PLoS ONE, 2015).
# About 2,200 (0.71%) of roughly 310,000 compounds showed an effect of 50% or more. Effects have a minus sign here. The list shows a part of the results.
# Molecular target: human ether-à-go-go-related gene (hERG) potassium channel (human, UniProt Q12809)
# Experiment: primary screen, population patch clamp on CHO cells stably expressing hERG
# Chain of human ether-à-go-go-related gene (hERG) potassium channel (Q12809 whole entry, looked up): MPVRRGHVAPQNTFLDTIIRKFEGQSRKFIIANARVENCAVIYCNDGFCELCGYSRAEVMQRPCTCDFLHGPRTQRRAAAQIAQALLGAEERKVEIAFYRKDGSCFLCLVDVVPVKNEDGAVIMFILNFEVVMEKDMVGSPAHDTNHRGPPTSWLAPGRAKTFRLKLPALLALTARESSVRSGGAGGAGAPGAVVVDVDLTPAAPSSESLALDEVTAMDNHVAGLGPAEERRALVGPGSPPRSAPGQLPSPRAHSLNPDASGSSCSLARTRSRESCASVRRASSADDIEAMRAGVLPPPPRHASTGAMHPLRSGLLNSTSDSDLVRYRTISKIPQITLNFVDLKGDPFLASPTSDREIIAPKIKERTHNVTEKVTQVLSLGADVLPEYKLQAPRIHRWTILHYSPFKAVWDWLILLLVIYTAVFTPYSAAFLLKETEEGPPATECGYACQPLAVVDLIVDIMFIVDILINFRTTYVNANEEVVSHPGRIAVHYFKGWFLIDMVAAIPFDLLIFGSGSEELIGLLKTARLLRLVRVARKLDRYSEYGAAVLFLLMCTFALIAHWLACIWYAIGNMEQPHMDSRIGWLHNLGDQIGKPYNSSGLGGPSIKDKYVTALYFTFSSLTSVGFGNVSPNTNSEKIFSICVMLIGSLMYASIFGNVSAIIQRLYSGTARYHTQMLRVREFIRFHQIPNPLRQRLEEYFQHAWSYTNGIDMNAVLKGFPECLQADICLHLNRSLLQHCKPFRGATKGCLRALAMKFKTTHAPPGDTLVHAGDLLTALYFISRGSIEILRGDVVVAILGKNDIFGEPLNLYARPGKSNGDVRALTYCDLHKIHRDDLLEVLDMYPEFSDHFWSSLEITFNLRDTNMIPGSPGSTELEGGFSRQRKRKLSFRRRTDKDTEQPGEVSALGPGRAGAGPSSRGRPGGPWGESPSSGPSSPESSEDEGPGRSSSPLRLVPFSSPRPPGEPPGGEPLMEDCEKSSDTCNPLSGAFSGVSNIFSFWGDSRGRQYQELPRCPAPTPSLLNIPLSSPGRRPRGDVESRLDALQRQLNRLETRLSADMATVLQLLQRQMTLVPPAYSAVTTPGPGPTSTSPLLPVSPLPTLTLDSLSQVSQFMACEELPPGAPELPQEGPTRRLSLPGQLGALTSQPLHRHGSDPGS
row,Compound,"hERG current change (%, negative = inhibition) at 1uM"
1,O=C(OCCN=C1NS(=O)(=O)c2ccccc21)C1CC(=O)N(c2ccc3ccccc3c2)C1 (stereo not drawn),0.0653%
2,S=c1[nH]nc(COc2ccc(Cl)cc2)n1-c1ccc(Cl)cc1,15.8%
3,CC1CCC(N2CCN(C(=O)COc3ccccc3)CC2)CC1.O=C(O)C(=O)O (stereo not drawn),-2.59%
4,Cc1ccc(S(=O)(=O)CCSc2nc(C)cc(C)c2C#N)cc1,17.8%
5,CCN(C(=O)CSc1nc2cc(S(=O)(=O)N(CC)CC)ccc2o1)C1CCS(=O)(=O)C1 (stereo not drawn),5.23%
6,Cc1cc(C)n2nc(C(=O)Nc3ccc4c(c3)OCO4)nc2n1,7.79%
7,CC(=O)c1sc(NC(=O)C2CCN(c3ncnc4sc(C)c(C)c34)CC2)nc1-c1ccccc1,8.76%
8,Cc1ccc(/C=C2\SC(=S)N(CCCC(=O)Nc3ccccc3C(=O)O)C2=O)cc1,-5.37%
9,FC(F)(F)c1nnc2ccc(NCc3cccnc3)nn12,13.2%
10,CC1(C)N=C(N)N=C(N)N1c1ccccc1.Cl,21.2%
11,C=CCC(C(=O)c1ccccc1)[N+](C)(C)CC=C.[Br-] (stereo not drawn),4.96%
12,O=C(NCC1CCCO1)C(c1ccc(F)cc1)N(CCCN1CCOCC1)C(=O)c1ccc(-c2ccccc2)[nH]1 (stereo not drawn),-2.25%
13,CCOC(=O)c1sc(NC(=O)C2CC(=O)N(c3ccc4c(c3)OCCO4)C2)nc1C (stereo not drawn),6.82%
14,CC(=O)Nc1ccc(S(=O)(=O)NCc2cc(=O)n(C)c(=O)n2C)cc1,12%
15,Cc1cccc(NC(=O)c2ccc(NCC3CCCO3)c([N+](=O)[O-])c2)n1 (stereo not drawn),17.5%
16,CCOC(=O)Cc1n[nH]c(=O)c2ccccc12,10.9%
17,CCOC(=O)N1CCC(NC(=O)C2CCCN(C(=O)c3cc4sccc4n3C)C2)CC1 (stereo not drawn),1.81%
18,COC(=O)C1=C(c2ccccc2)C[C@@H]2CC[C@H]1N2C(=O)N1CCOCC1,1.67%
19,Cn1c(=O)[nH]c(=O)c2c1nc(CN1CCOCC1)n2CCCc1ccccc1,0.33%
20,Cc1ccc(NC(=O)CN2CCc3ccccc3C2)cc1,-13.5%
21,CN1CCN(c2nc(-c3cccc([N+](=O)[O-])c3)nc3ccccc23)CC1,8.65%

row,Compound,"hERG current change (%, negative = inhibition) at 1uM"
1,COc1cccc(/C=N/Nc2nnc(C)n2N)c1O.Cl,10%
2,CCOc1ccc(OCC)c(NC(=O)C2CCN(c3nn4c(=O)cc(C)nc4s3)CC2)c1,1.92%
3,CCOc1ccc(NC(=O)Nc2cc(C(C)C)c(O)cc2C)cc1,7.04%
4,Cc1nnc(NC(=O)c2cc(S(=O)(=O)N(C)C)ccc2N2CCCC2)s1,14.6%
5,C/C(=N\NC(=O)c1cccc(S(=O)(=O)Nc2ccccc2Cl)c1)c1ccc(-n2ccnc2)cc1,6.75%
6,Cc1ccc(NC(=S)NC(=O)C2CCC2)cc1C,3.37%
7,Cc1c(CCOC(=O)C23CC4CC(CC(C)(C4)C2)C3)sc[n+]1CC(=O)c1ccccc1.[Br-],2.92%
8,O=C(Nc1cnn(Cc2ccccc2)c1)c1nc2ncccn2n1,2.52%
9,COc1ccc(S(=O)(=O)Nc2ccc(S(=O)(=O)N3CCCCC3)cc2)cc1C,3.1%
10,CCc1c(C)nc(N2CCN(c3ccccc3F)CC2)[nH]c1=O,13.6%
11,Cc1ccc(Nc2c(-c3ccccn3)nc3cc(C)ccn23)cc1,-4.1%
12,CCOC(=O)Cc1csc(NC(=O)COc2ccccc2OC)n1,1.79%
13,CC1(C)CC(=O)C2=C(C1)Nc1ccccc1[S@]2=O,8.31%
14,O=C(NC(=S)Nc1ccc(Cc2ccncc2)cc1)c1ccccc1,6.43%
15,O=C(C1CCC(=O)N1Cc1cccs1)N1CCOCC1 (stereo not drawn),9.17%
16,CCOC(=O)C1CCCN(C(=O)c2cn(CC(C)C)c(=O)c3cc(OC)c(OC)cc23)C1 (stereo not drawn),7.33%
17,Cc1cccc(Cn2c(=O)c3c(nc4n3CCCN4Cc3ccccc3)n(C)c2=O)c1,11.6%
18,Nc1c(-c2ccccc2)sc2ccc3ccccc3[n+]12.O=S(=O)([O-])c1ccccc1,-15.6%
19,Cc1nc2cc(N=NC3=C(O)CCCC3=O)ccc2s1,10.4%
20,O=C(Nc1nnc(C2CC2)s1)c1ccncc1,7.22%
21,COc1ccc(CC(C)Nc2cccc(SC)c2)cc1 (stereo not drawn),17%
